Measurements reported in US20250019377A1 (JACOBIO PHARMACEUTICALS CO., LTD, priority 2021, published 2025).

Key:
[1] = target: T1, K-Ras G12V (Homo sapiens, UniProt P01116, G12V); assay: SOS1 catalyzed nucleotide exchange assay (GDP form K-Ras), K-Ras G12V; details: read-out: K-Ras G12V GDP Biochemical Activity (IC50)
[2] = target: K-Ras G12C (Homo sapiens, UniProt P01116, G12C); assay: SOS1 catalyzed nucleotide exchange assay (GDP form K-Ras), K-Ras G12C; details: read-out: K-Ras G12C GDP Biochemical Activity (IC50)
[3] = target: T2, K-Ras WT (Homo sapiens, UniProt P01116); assay: SOS1 catalyzed nucleotide exchange assay (GDP form K-Ras), K-Ras WT; details: read-out: K-Ras WT GDP Biochemical Activity (IC50)
[4] = target: K-Ras G12A (Homo sapiens, UniProt P01116, G12A); assay: SOS1 catalyzed nucleotide exchange assay (GDP form K-Ras), K-Ras G12A; details: read-out: K-Ras G12A GDP Biochemical Activity (IC50)
[5] = target: K-Ras G12R (Homo sapiens, UniProt P01116, G12R); assay: SOS1 catalyzed nucleotide exchange assay (GDP form K-Ras), K-Ras G12R; details: read-out: K-Ras G12R GDP Biochemical Activity (IC50)
[6] = target: K-Ras Q61H (Homo sapiens, UniProt P01116, Q61H); assay: SOS1 catalyzed nucleotide exchange assay (GDP form K-Ras), K-Ras Q61H; details: read-out: K-Ras Q61H GDP Biochemical Activity (IC50)
[7] = tested on: p-ERK in AGS cells (K-Ras G12D); assay: Phospho-ERK1/2(THR202/TYR204) HTRF assay, AGS; format: cell-based; details: Homo sapiens, 2 h, 2 hours incubation
[8] = tested on: p-ERK in SW620 cells (K-Ras G12V); assay: Phospho-ERK1/2(THR202/TYR204) HTRF assay, SW620; format: cell-based; details: Homo sapiens, SW-620, 2 h, 2 hours incubation
[9] = tested on: p-ERK in NCI-H358 cells (K-Ras G12C); assay: Phospho-ERK1/2(THR202/TYR204) HTRF assay, NCI-H358; format: cell-based; details: Homo sapiens, 2 hours incubation
[10] = tested on: p-ERK in TCC-PAN2 cells (K-Ras G12R); assay: Phospho-ERK1/2(THR202/TYR204) HTRF assay, TCC-PAN2; format: cell-based; details: 2 hours incubation
[11] = tested on: p-ERK in NCI-H460 cells (K-Ras Q61H); assay: Phospho-ERK1/2(THR202/TYR204) HTRF assay, NCI-H460; format: cell-based; details: Homo sapiens, 2 hours incubation
[12] = tested on: p-ERK in MKN-1 cells (K-Ras WT amplification); assay: Phospho-ERK1/2(THR202/TYR204) HTRF assay, MKN-1; format: cell-based; details: Homo sapiens; MKN-1, K-Ras WT, 2 hours incubation
[13] = tested on: p-ERK in NCI-H747 cells (K-Ras G13D)
[14] = target: K-Ras G12D (Homo sapiens, UniProt P01116, G12D); assay: GTP-K-Ras and cRAF interaction assay (GppNp-K-Ras), K-Ras G12D; details: read-out: K-Ras G12D GppNp Biochemical Activity (IC50)
[15] = target: T2, K-Ras WT; assay: GTP-K-Ras and cRAF interaction assay (GppNp-K-Ras), K-Ras WT; details: read-out: K-Ras WT GppNp Biochemical Activity (IC50)
[16] = target: T1, K-Ras G12V; assay: GTP-K-Ras and cRAF interaction assay (GppNp-K-Ras), K-Ras G12V; details: read-out: K-Ras G12V GppNp Biochemical Activity (IC50)
[17] = target: K-Ras G13D (Homo sapiens, UniProt P01116, G13D); assay: GTP-K-Ras and cRAF interaction assay (GppNp-K-Ras), K-Ras G13D; details: read-out: K-Ras G13D GppNp Biochemical Activity (IC50)

IC50 [1] [nM] | IC50 [2] [nM] | IC50 [3] [nM] | IC50 [4] [nM] | IC50 [5] [nM] | IC50 [6] [nM] | IC50 [7] [nM] | IC50 [8] [nM] | IC50 [9] [nM] | IC50 [10] [nM] | IC50 [11] [nM] | IC50 [12] [nM] | IC50 [13] [nM] | IC50 [14] [nM] | IC50 [15] [nM] | IC50 [16] [nM] | IC50 [17] [nM] | Structure (SMILES)
1.66 | 0.709 | 1.74 | – | – | – | – | – | – | – | – | – | – | – | – | – | – | C#Cc1c(F)ccc2cc(O)cc(-c3c(F)cc4c(N5CCCOCC5)nc(OC[C@@]56CCCN5C[C@H](F)C6)nc4c3F)c12 [Compound 148, 4-(6,8-difluoro-2-(((2R,7aS)-2-fluorotetra-hydro-1H-pyrrolizin-7a(5H)-yl)methoxy)-4-(1,4-oxazepan-4-yl)quinazolin-7-yl)-5-ethynyl-6-fluoronaphthalen-2-ol]
0.972 | 0.345 | 0.66 | 0.387 | 0.472 | 0.706 | 2 | 2.08 | 1.19 | 67.8 | 5.43 | 1.76 | 1.96 | – | – | – | – | C#Cc1c(F)ccc2cc(O)cc(-c3ncc4c(N5CCOC[C@H](F)C5)nc(OC[C@@]56CCCN5C[C@H](F)C6)nc4c3F)c12 (single isomer, unassigned) [Compound 12B]
1.68 | – | 1.87 | – | – | – | – | – | – | – | – | – | – | 31.2 | – | – | – | C#Cc1c(F)ccc2cc(O)cc(-c3ccc4c(N5CCCOCC5)nc(OC[C@@]56CCCN5C[C@H](F)C6)nc4c3F)c12 [Compound 147, 5-ethynyl-6-fluoro-4-(8-fluoro-2-(((2R,7aS)-2-fluorotetrahydro-1H-pyrrolizin-7a(5H)-yl)methoxy)-4-(1,4-oxazepan-4-yl)quinazolin-7-yl)naphthalen-2-ol]
2.16 | 0.965 | 1.83 | – | – | – | 4.32 | 10.9 | – | – | – | – | – | – | – | – | – | C#Cc1c(F)ccc2cc(O)cc(-c3ncc4c(N5CCCOCC5)nc(OCC5(CN6CCOCC6)CC5)nc4c3F)c12 [Compound 64, 5-ethynyl-6-fluoro-4-(8-fluoro-2-((1-(morpholinomethyl)cyclopropyl)methoxy)-4-(1,4-oxazepan-4-yl)pyrido[4,3-d]pyrimidin-7-yl)naphthalen-2-ol trifluoroacetic acid]
3.74 | 1.2 | 0.934 | 0.685 | 0.938 | 1.01 | 1.36 | 4 | 1.73 | 94 | 2.26 | 1.44 | – | – | – | – | – | C#Cc1c(F)ccc2cc(O)cc(-c3ncc4c(N5CCOCC6CC65)nc(OC[C@@]56CCCN5C[C@H](F)C6)nc4c3F)c12 (stereo partly drawn) [Compound 33, 4-(4-(5-oxa-2-azabicyclo[5.1.0]octan-2-yl)-8-fluoro-2-(((2R,7aS)-2-fluorotetrahydro-1H-pyrrolizin-7a(5H)-yl)methoxy)pyrido[4,3-d]pyrimidin-7-yl)-5-ethynyl-6-fluoronaphthalen-2-ol]
1.2 | 0.802 | 1.23 | 1.05 | 1.41 | 0.844 | – | – | – | – | – | – | – | – | – | – | – | C#Cc1c(F)ccc2cc(O)cc(-c3ncc4c(N5CCCOCC5)nc(OCC56CCCN5CC(SC)C6)nc4c3F)c12 (stereo not shown) [Compound 100, 5-ethynyl-6-fluoro-4-(8-fluoro-2-((2-(methyl-thio)tetrahydro-1H-pyrrolizin-7a(5H)-yl)methoxy)-4-(1,4-oxazepan-4-yl)pyrido [4,3-d]pyrimidin-7-yl)naphthalen-2-ol]
2.71 | – | – | – | – | – | – | – | – | – | – | – | – | 16 | – | – | – | C#Cc1c(F)ccc2cc(O)cc(-c3ncc4c(N5CCCOC(C)C5)nc(OC[C@@]56CCCN5C[C@H](F)C6)nc4c3F)c12 (stereo partly drawn) [Compound 149, 5-ethynyl-6-fluoro-4-(8-fluoro-2-(((2R,7aS)-2-fluorotetrahydro-1H-pyrrolizin-7a(5H)-yl)methoxy)-4-(2-methyl-1,4-oxazepan-4-yl)pyrido[4,3-d]pyrimidin-7-yl) naphthalen-2-ol]
9.61 | – | 12.9 | – | – | – | 537 | 890 | – | – | – | – | – | 210 | 755 | 1480 | 26.8 | C#Cc1c(F)ccc2cc(O)cc(-c3ncc4c(N5CCOC[C@@H](CC#N)C5)nc(OC[C@@]56CCCN5C[C@H](F)C6)nc4c3F)c12 (single isomer, unassigned) [Compound 14A]
0.983 | 3.19 | 2.1 | 1.78 | 0.63 | 1.26 | – | – | – | – | – | – | – | – | – | – | – | C#Cc1c(F)ccc2cc(O)cc(-c3ncc4c(N5CC6COC(C6)C5)nc(OC[C@@]56CCCN5C[C@H](F)C6)nc4c3F)c12 (single isomer, unassigned) [Compound 84B, 4-(4-((1S,5R)-6-oxa-3-azabicyclo[3.2.1]octan-3-yl)-8-fluoro-2-(((2R,7aS)-2-fluorotetra-hydro-1H-pyrrolizin-7a(5H)-yl)methoxy)pyrido[4,3-d]pyrimidin-7-yl)-5-ethynyl-6-fluoronaphthalen-2-ol or 4-(4-((1R,5S)-6-oxa-3-azabicyclo[3.2.1]octan-3-yl)-8-fluoro-2-(((2R,7aS)-2-fluorotetra-hydro-1H-pyrrolizin-7a(5H)-yl)methoxy)pyrido[4,3-d]pyrimidin-7-yl)-5-ethynyl-6-fluoronaphthalen-2-ol]
